This data set deals with ATP. Kind of data set: switch fluorescence ratio, 500 uM ATP over buffer (Cy3 cluster intensity, sum of 5 cycles each) (fold (ratio)); higher = stronger signal-on switching upon ATP binding; sequences stand for … in TCGTCGGCAGCGTCAGATGTGTATAAGAGACAGTTTTTTTTTTTTTTTTTTTTTTTTT…TC. Particulars: aptamer strand: ATP DNA aptamer (quencher-CACCTGGGGGAGTATTGCGGAGGAAGG + anchor), 100 nM annealed; ATP concentration: 500 uM; one replicate. In short, it runs like this: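 Five buffer/ATP imaging cycles were run on Cy3-labelled switching-strand clusters on a modified Illumina MiSeq flow-cell, with NaOH stripping and re-annealing between cycles. In each cycle, clusters annealed to 100 nM quencher-labelled ATP aptamer were imaged in selection buffer, then after 15 min with 500 uM ATP at 22 °C. Per cluster, the fluorescence ratio is summed target-cycle over summed buffer-cycle Cy3 intensity, averaged per switch-domain sequence. Only clusters within 100-1000 RFU were kept.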

From the supplement of paper PMC10126150 come the findings set out here.

Sequences with one replicate were seen in a single cluster, so their values are uncertain.
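Also: ATP exposure 15 min at 22 °C before imaging.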

As for CGCGGGCCTA, the switch fluorescence ratio worked out at 1.

On to ACGCGATCTT, for which the switch fluorescence ratio stood at 1.07.

Regarding TAGCCGGCCC, the switch fluorescence ratio turned out to be 1.

Turning to AGGCCACTCC, the switch fluorescence ratio worked out at 1.11.

GAATCCAAGT: the switch fluorescence ratio worked out at 0.993.

As to GACAGCATAT, the switch fluorescence ratio was found to be 1.89.

For TGATACGTAT, the switch fluorescence ratio came out at 1.03.

Take TTCGCATTG: the switch fluorescence ratio was 1.02.

On to GCACATTTAC, for which the switch fluorescence ratio worked out at 1.31.

As for TCGGTCACGT, the switch fluorescence ratio was found to be 0.965.

Regarding GGCCGTCATG, the switch fluorescence ratio was determined as 1.01.

TTCATTCACA: the switch fluorescence ratio came to 1.03.

CCTCGATAAA: the switch fluorescence ratio stood at 1.24.

ATTATTTTCG: the switch fluorescence ratio was found to be 1.02.

Consider ATAAAAATGA, for which the switch fluorescence ratio was found to be 0.99.

Turning to GCTAGGGCTG, the switch fluorescence ratio was determined as 1.01.

Turning to CCGTCCGCCT, the switch fluorescence ratio worked out at 2.28.

With TCGATTT, the switch fluorescence ratio worked out at 0.979.

Consider ATATACGCGG, for which the switch fluorescence ratio is 1.02.

Regarding ATTCCGGCCA, the switch fluorescence ratio was found to be 1.09.

With GTAAAACTGC, the switch fluorescence ratio amounted to 1.07.

On to CGGCAGAGCC, for which the switch fluorescence ratio was determined as 1.03.

Turning to CCCGTTGCGC, the switch fluorescence ratio turned out to be 1.1.

With TCTATCGCTC, the switch fluorescence ratio is 1.33.

For GGTCCCTCGG, the switch fluorescence ratio was 1.01.

In the case of TTGGTAGTTA, the switch fluorescence ratio stood at 0.98.

With ATAGGATTCC, the switch fluorescence ratio stood at 0.992.

GCCGGTTAGG: the switch fluorescence ratio is 0.98.

On to CCACCGGTTC, for which the switch fluorescence ratio amounted to 1.41.

For GCGACGGCCG, the switch fluorescence ratio stood at 1.02.

GCGTTACCGC: the switch fluorescence ratio was 1.

Turning to AATACTCACA, the switch fluorescence ratio is 1.44.

With AACGGTAGAG, the switch fluorescence ratio was determined as 1.01.

In the case of TAACCACAAC, the switch fluorescence ratio worked out at 1.07.

With AGTAGTAGGC, the switch fluorescence ratio is 1.

Take CTGATTGGAA: the switch fluorescence ratio was 0.991.

Consider TAGTGTGACC, for which the switch fluorescence ratio was determined as 1.02.

GGGACAATAA: the switch fluorescence ratio amounted to 1.07.

Turning to ATATGTGCGC, the switch fluorescence ratio was found to be 0.98.

With GGGTAGGCCG, the switch fluorescence ratio is 0.887.

For AAGCCAAGGG, the switch fluorescence ratio was 0.993.

With ACGTTTGGTA, the switch fluorescence ratio came to 1.

Regarding ATTGTTAG, the switch fluorescence ratio was found to be 1.01.

For the sequence GAACCGATGG, the switch fluorescence ratio came to 1.07.

For GCACTTTAAT, the switch fluorescence ratio turned out to be 0.983.

With AGGGTAATGA, the switch fluorescence ratio turned out to be 1.

Take GCGTTTCACC: the switch fluorescence ratio was 1.01.

As for ACGGGTAGTG, the switch fluorescence ratio is 0.967.

As for TCAACGGAAG, the switch fluorescence ratio was found to be 1.07.

ACCGCATAA: the switch fluorescence ratio was determined as 1.39.

AAGAGGATAA: the switch fluorescence ratio is 0.987.

As for GTGCTTGAGT, the switch fluorescence ratio is 0.997.

Take CCCATCCGCT: the switch fluorescence ratio is 3.23.

As to CCAGGCTTTG, the switch fluorescence ratio was 0.937.

CTTCAGCTTG: the switch fluorescence ratio was found to be 0.985.

TCTAACCGCC: the switch fluorescence ratio was found to be 1.7.

For CGGGTCACTG, the switch fluorescence ratio worked out at 1.

Regarding TTGCTGATAG, the switch fluorescence ratio was found to be 1.01.

Regarding GAATTAGTAG, the switch fluorescence ratio worked out at 0.97.

As to TGTTTTTTT, the switch fluorescence ratio is 0.973.

Regarding TCATCTGTA, the switch fluorescence ratio amounted to 0.995.

Consider TGCGGGTTTA, for which the switch fluorescence ratio turned out to be 1.04.

Take GGTGGATAGG: the switch fluorescence ratio was determined as 0.965.

As for TTTTTTACGC, the switch fluorescence ratio was found to be 1.04.

Take ATCGGATAGT: the switch fluorescence ratio was 1.02.

Consider TGTCAAAAGC, for which the switch fluorescence ratio worked out at 0.969.

As for CGGGAATTCA, the switch fluorescence ratio was 1.04.

Take CGGGCTTCGG: the switch fluorescence ratio amounted to 1.02.

Take CATGAACAGG: the switch fluorescence ratio was determined as 1.06.

In the case of GCTTGTTAGG, the switch fluorescence ratio amounted to 0.978.

As for TTCTTTCCCG, the switch fluorescence ratio is 1.07.

As to ACCGCACGGG, the switch fluorescence ratio was 2.03.

Regarding CATTTGAAGG, the switch fluorescence ratio worked out at 1.02.

Regarding GCAGCTGCGG, the switch fluorescence ratio was 0.992.

For CGCGCCATTT, the switch fluorescence ratio was found to be 1.

GTCAATCGTA: the switch fluorescence ratio worked out at 1.05.

Regarding ATCGACCACG, the switch fluorescence ratio amounted to 1.03.

As to ACTGTACGA, the switch fluorescence ratio was 1.52.
